Where “and” joins values, the source holds several entries; their conditions need not be identical. Identical values can stand only once. The list shows a part of the results. Further columns of the screen follow, without active or inactive calls.
Columns and labels:
Assay in all cases: Primary Screen for Target Class Profiling of Small Molecule Inhibitors of Methyltransferases
[1] = target: Glycine N-methyltransferase (Homo sapiens) (UniProt Q14749); settings: purified enzyme, MTase-Glo SAH luminescence; measured here: GNMT inhibition; at 40 µM; stronger effect = lower value
How it was run: (§1)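 Each enzyme was reacted with SAM and its substrate, with compounds tested once at 40 uM; SAH formed was read by MTase-Glo luminescence.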

[2] = target: Guanidinoacetate N-methyltransferase (Homo sapiens) (UniProt Q14353); settings: purified enzyme, MTase-Glo SAH luminescence; measured here: GAMT inhibition; at 40 µM; stronger effect = lower value
How it was run: as §1

[3] = target: Histamine N-methyltransferase (Homo sapiens) (UniProt P50135); settings: purified enzyme, MTase-Glo SAH luminescence; measured here: HNMT inhibition; at 40 µM; stronger effect = lower value
How it was run: as §1

[4] = target: Nicotinamide N-methyltransferase (Homo sapiens) (UniProt P40261); settings: purified enzyme, MTase-Glo SAH luminescence; measured here: NNMT inhibition; at 40 µM; stronger effect = lower value
How it was run: as §1

[5] = target: Phenylethanolamine N-methyltransferase (Homo sapiens) (UniProt P11086); settings: purified enzyme, MTase-Glo SAH luminescence; measured here: PNMT inhibition; at 40 µM; stronger effect = lower value
How it was run: as §1
% is scaled to controls: 0 for no effect and ±100 for the full control effect.

Row | Compound | activity change, negative = inhibition [1] | activity change, negative = inhibition [2] | activity change, negative = inhibition [3] | activity change, negative = inhibition [4] | activity change, negative = inhibition [5]
1 | Cc1ccc(Cn2c(=O)c3ccccc3n3c(SCC(=O)NC4CCCCC4)nnc23)cc1 | 3.56% | 0% | 9.27% | -0.121% | 4.03%
2 | O=C(Nc1ccc(F)c(Cl)c1)N1Cc2c(sc3c2CCCC3)-n2cccc2C1c1ccccc1 (stereo not given) | 3.48% | 0% | 0.511% | 3% | 8.19%
3 | CN(C)C[C@@H]1CN(C)C[C@H]1NS(=O)(=O)c1ccccc1F | -1.21% | -3.12% | -0.332% | -6.24% | 11%
4 | Cc1cc2[nH]c(=O)[nH]c2cc1S(=O)(=O)N1CCOCC1 | -0.439% | 0% | 0.283% | 0.867% | -4.58%
5 | OCC1O[C@H](O)C(Cl)C(O)C1O (stereo not given in full) | 6.28% | 12% | 11.7% | -4.97% | 3.09%
6 | N#Cc1ccnc(N2C(=O)CC[C@H]2C(=O)N(c2cncc(F)c2)[C@H](C(=O)NC2CC(F)(F)C2)c2ccccc2Cl)c1 | 3.11% | 5.48% | 3.96% | -13.4% | -5.57%
7 | CCc1noc(-c2ccn3c(CNC(=O)Cc4c[nH]c5ccccc45)nnc3c2)n1 | -3.17% | -7.18% | -1.41% | -5.68% | 1.65%
8 | C=CC(=O)Nc1ccc2ncnc(Nc3cccc(Br)c3)c2c1 | -56.2% | -46.6% | -56.3% | -48.4% | -58.2%
9 | CC(C)(C)n1nnnc1C1CC2(CCOCC2)C(=O)N1Cc1cccs1 (stereo not given) | -5.24% | -8.85% | -2.22% | -13.3% | -5.78%
10 | Cc1cccc(NC(=O)Cn2c(=O)oc3cc(S(=O)(=O)NC4CCCC4)ccc32)c1 | 0.203% | 2.06% | 10.4% | 10.3% | -7.29%
11 | CCC(C)NC(=O)c1ccc2c(=O)n(C)c3nn(CC(=O)c4ccccc4)c(=O)n3c2c1 (stereo not given) | -0.835% | 11% | 4.72% | -3.82% | 4.88%
12 | Cc1cc(C)cc(N2C(=O)c3cc4occc4n3CC2(C)C(=O)NC2CCCC(C)C2C)c1 (stereo not given) | -12.6% | -7.62% | -5.87% | -15.7% | -11.7%
13 | COc1ccccc1N1CCN(S(=O)(=O)c2cccc3c2C(=O)c2ccccc2C3=O)CC1 | -7.99% | -0.685% | -7.33% | -4.93% | -47%
14 | COc1ccc(N2C(=O)CSc3c(c4ccccc4n3C)C2C(=O)NCCC(C)C)cc1 (stereo not given) | 3.86% | 4.8% | -6.06% | -5.22% | -1.83%
15 | CC1CCN(S(=O)(=O)c2ccc3c(ccn3CC(=O)NCCc3ccco3)c2)CC1 | 3.15% | 2.32% | 0.849% | 1.59% | 0.392%
16 | CC(C)Cn1c(=O)c2ccc(C(=O)NC(C)C)cc2n2c(SCC(=O)NCc3ccccc3)nnc12 | 1.1% | 4.09% | -0.703% | -1.82% | -0.646%
17 | CCOC(=O)c1cc2n(n1)CC(C)(C(=O)NC1CCCCC1)N(c1cccc(C)c1C)C2=O (stereo not given) | 5.8% | 0% | -1.76% | 5.16% | 4.84%
18 | CCC(C)NC(=O)c1ccc2c(=O)n(C)c3nn(CC(=O)c4ccc(OC)cc4)c(=O)n3c2c1 (stereo not given) | -1.65% | 5.24% | 1.44% | -3.24% | 1.38%
19 | CC1CCC(NC(=O)C2(C)Cn3c(ccc3-c3ccco3)C(=O)N2Cc2ccccc2Cl)CC1 (stereo not given) | 1.03% | 3.71% | 4.33% | -0.043% | -0.087%
20 | Cc1ncccc1C(=O)N1CC[C@@H]2COCCN(Cc3ccncc3)[C@@H]2C1 | -6.57% | -5.23% | -1.59% | -13.7% | -1.9%

Row | Compound | activity change, negative = inhibition [1] | activity change, negative = inhibition [2] | activity change, negative = inhibition [3] | activity change, negative = inhibition [4] | activity change, negative = inhibition [5]
21 | Cc1cc2c(cc1S(=O)(=O)Nc1cccc(Cl)c1C)n(C)c(=O)n2C | 6.11% | 0% | 3.82% | -3.06% | -2.33%
22 | COc1ccc(Nc2ccnc(N3CCCC(C(=O)NCc4ccc(F)cc4)C3)n2)cc1 (stereo not given) | -11.1% | -10.7% | -9.77% | -22.2% | -11.9%
23 | CCOc1ccc(CN2C(=O)c3cc(C4CC4)nn3CC2(C)C(=O)NC2CCCCCC2)cc1 (stereo not given) | -1.1% | 0% | 3.88% | -2.37% | -0.297%
24 | CCCCN1C(=O)c2cc(C(=O)Nc3ccc(F)cc3)nn2CC1(C)C(=O)NC1CCCC1 (stereo not given) | 8.47% | 2.21% | -9.56% | 5.74% | 6.47%
25 | COc1cccc(CN2C(=O)c3cc(C4CC4)nn3CC2(C)C(=O)NC2CCCCCC2)c1OC (stereo not given) | -0.736% | 0.178% | 4.57% | -9.19% | -0.085%
26 | O=C(Cn1nc2n(Cc3ccccc3)c(=O)c3ccccc3n2c1=O)NCc1ccc(Cl)cc1 | 3.73% | 0% | 4.79% | 5.33% | 2.1%
27 | N[C@H](C(=O)O)c1cc(O)cc(O)c1 | 4.8% | 5.55% | 10.6% | -4.67% | 2.94%
28 | O=C(Nc1ccc(Cl)nc1)c1ccc2ccnn2c1 | -25.1% | 0.147% | 0.743% | -7.76% | -3.21%
29 | CN1C[C@H](O)C[C@H]1c1nnc2n1CCN(S(=O)(=O)c1ccccc1)CC2 | 0.608% | 3.61% | 1.45% | 0.484% | 12.3%
30 | c1ccc(C(NCc2cccnc2)(c2ccccc2)c2ccccc2)cc1 | 8.93% | 14.3% | 11.5% | -8.62% | 0.292%
31 | Cc1nc2c3ccccc3n3c(CCCC(=O)N4CCN(c5ccc(F)cc5)CC4)nnc3n2n1 | -20.3% | 0.865% | 5.07% | 9.43% | 2.5%
32 | CC(C)n1c(=O)c2ccc(C(=O)NC3CCCC3)cc2n2c(=O)n(Cc3c(F)cccc3Cl)nc12 | 6.19% | 4.03% | 4.24% | 2.82% | 7.52%
33 | Cc1cccc(C#Cc2ccccc2)n1 | -25.4% | -13.6% | -14.5% | -19% | -17.7%
34 | CN(C1CCc2c(c3ccccc3n2CC(=O)O)C1)S(=O)(=O)c1ccc(F)cc1 (stereo not given) | -2.75% and -1.75% | -2.72% and 3.52% | 10.7% and 9.99% | -18.6% and -13.4% | 1.57% and 3.66%
35 | CC1CCCC(NC(=O)C2(C)Cn3c(cc4sccc43)C(=O)N2CCCc2ccccc2)C1C (stereo not given) | -9.99% | -1.15% | -3.55% | -10% | -3.62%
36 | CC1=C(CO)C(=O)O[C@@H]([C@@H](C)[C@H]2CC[C@H]3[C@@H]4C[C@H]5O[C@]56[C@@H](O)C=CC(=O)[C@]6(C)[C@H]4CC[C@]23C)C1 | -11.3% | -6.09% | 5.87% | -17.5% | -8.14%
37 | CO[C@@]12CC3[C@@H]([C@@H](O)[C@@H](OC(C)=O)C4[C@](C)(COC(C)=O)CCC[C@]34C)[C@@H](C)C1=CC(=O)O2 (stereo not given in full) | 0% | 3.14% | 4.15% | -10.7% | 5.16%
38 | CSc1ccc(CNC(=O)CCn2ccc3cc(S(=O)(=O)N4CCCCC4)ccc32)cc1 | -0.496% | 1.92% | -4.28% | -6.38% | -3.95%
39 | O=C(c1ccc(F)cc1)N1CCC(C(=O)N2CCCC(c3nc4ccncc4[nH]3)C2)CC1 (stereo not given) | -7.21% | -7.8% | -13.8% | -23.6% | -11.6%
40 | CC(CNC(=O)CCc1nnc2n(CCc3ccccc3)c(=O)c3ccccc3n12)c1ccccc1 (stereo not given) | -17.4% | 0% | 3.24% | 3.47% | 0.71%

Row | Compound | activity change, negative = inhibition [1] | activity change, negative = inhibition [2] | activity change, negative = inhibition [3] | activity change, negative = inhibition [4] | activity change, negative = inhibition [5]
41 | O=C(NCc1ccc(F)cc1)c1ccc2c(=O)nc3c(-c4ccc(Cl)cc4)n[nH]n3c2c1 | -0.685% | 2.73% | 1.75% | 5.49% | 1.25%
42 | NS(=O)(=O)c1ccc(CCNc2nc3c(-c4ccc(Cl)cc4)nnn3c3ccccc23)cc1 | -3.46% | 6.74% | 6.54% | 2.67% | 1.71%
43 | FC(F)(F)c1ccc(CN2CCC3(CC(c4cccc(C(F)(F)F)c4)=NO3)C2)cc1 (stereo not given) | -5.03% | -0.695% | -0.923% | -4.08% | -10%
44 | Cn1cc(CN[C@H]2C[C@H]3C(=O)NC[C@@H](CCC(=O)NCc4ccccc4)N3C2)c2ccccc21 | -5.4% | -3.58% | -4.7% | -14% | -4.88%
45 | CO[C@H]1C(=O)N(C(C)C)[C@H]1C1CCN(S(=O)(=O)c2ccc3c(c2)CCC3)CC1 | -4.04% | -2.57% | 0.388% | -8.41% | 13.2%
46 | O=C(NCc1cccc(Cl)c1)c1cnc2c(c1)N(C(=O)Cc1ccc(O)cc1)CCC2 | -6.6% | -4.58% | -82% | -15.4% | -7.5%
47 | CNc1nc(C(=O)N2CCC3(CCC(=O)N(CC4CCCO4)C3)CC2)cs1 (stereo not given) | -1.34% | -1.24% | 1.57% | -6.28% | -8.63%
48 | CCOc1ccc(N2C(=O)c3cc4ccccc4n3CC2(C)C(=O)NCCC(C)C)cc1 (stereo not given) | 0.608% | 0% | 4.13% | 1.03% | -4.17%
49 | COC(=O)N(C)c1c(N)nc(-c2nn(Cc3ccccc3F)c3ncccc23)nc1N | 5.86% | 0.696% | 1.96% | -15.2% | -2.89%
50 | Cc1cc(C(=O)NCC2CCCN(Cc3nnc(-c4cccnc4)o3)C2)no1 (stereo not given) | -2.31% | -0.578% | -0.257% | -5.47% | -0.001%
51 | CCc1cc2c(cc3n2CC(C)(C(=O)NC2CCCCCC2)N(Cc2cccnc2)C3=O)s1 (stereo not given) | -9.58% | 0% | -2.35% | -22% | -2.66%
52 | CCn1nnnc1NCc1ccc(C(C)C)cc1 | 7.44% | 6.91% | 8.39% | -7.35% | 5.02%
53 | C=C[C@@]12COC(=O)C(=C)[C@@H]1[C@@H](O)[C@H](C(=C)C(=O)OC)[C@@H](O)C2 | 0.961% | -0.228% | 10.8% | -12.8% | -6.7%
54 | C=CCN1CCc2c(cc(O)c(O)c2Br)[C@@H](c2ccccc2)C1 | -40.4% | 4.68% | -40.9% | -8.76% | 2.86%
55 | CN(C)Cc1cn(C[C@H]2C[C@@H](NC(=O)Nc3ccc4c(c3)OCCO4)[C@H](O)[C@@H]2O)nn1 | -7.62% | -8.55% | -5.71% | -9.88% | -0.984%
56 | O=C(O)c1cnn(-c2nc3cc(OC(F)(F)F)c(Cl)cc3[nH]2)c1 | -8.61% | -3.73% | 7.79% | -12.3% | 4.5%
57 | O=C(O)c1ccc(CC2CCN(Cc3ccccn3)C2)cc1 (stereo not given) | -4.94% | -6.06% | -4.26% | -11.2% | -17.3%
58 | CCOCCCN1C(=O)c2cc(-c3ccc(C(C)C)cc3)nn2CC1(C)C(=O)NC1CCCCC1 (stereo not given) | -13.4% | 3.99% | -0.928% | -9.78% | -1.34%
59 | CCn1ncc(CN2CCC3(CCC3OC)CC2)c1C (stereo not given) | 1.65% | -1.15% | 0.048% | 1.06% | -3.19%
60 | N#Cc1ccccc1CN1CCNc2nc(CNCc3ccccc3)n(Cc3ccccc3)c2C1=O | -6.32% | 0.721% | -9.86% | -2.09% | 1.98%

Reference: PubChem BioAssay AID1745853 (National Center for Advancing Translational Sciences (NCATS), 2022)
